# Measurements: the supplement of paper PMC8728848
# The list shows a part of the results.
# B1: Pwp4 (Candida glabrata) (protein)
# chain: MGSSHHHHHHSSGLVPRGSHMASVGNPITVSNVCSFPKNWHRTAGFRALTARLGIGIQSDSYKELLNYPGTFQLTTQQSSTTKPNFQISGLVGNIYGLTIVPSYLLVELTGYFVPPVSGEYTFSLEGSDDAAIIFIANPSTFKCGHVEDWPTAYDNDVTVTESIHATRTIYMIEGVAYPIRIAYYNGLSLGKLQASFTDPEGVKRVDWNGYIWRYDSCDTCSYV
# Columns and labels:
# Assay in all cases: glycan array binding signal (z-score within array); higher = stronger binding
# Details in all cases: glycan notation: IUPAC condensed, linker removed
# [1] = biological target: Neu5Ac(a2-3)Gal(b1-3)GlcNAc6S
# Summary of the method: (§1)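 The binding signal is a Z-score computed within each array. Data were drawn from 3228 arrays in the Consortium for Functional Glycomics database, restricted to those with a known protein sequence. Scores were averaged over arrays of the same protein sequence at different concentrations or buffers, and over linkers, and negative values can be taken as non-binding.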
# [2] = biological target: Neu5Ac(a2-3)Gal(b1-3)[Fuc(a1-4)]GlcNAc
# Summary of the method: as §1
# [3] = biological target: Neu5Ac(a2-3)Gal(b1-3)[Fuc(a1-4)]GlcNAc(b1-3)Gal(b1-3)[Fuc(a1-4)]GlcNAc
# Summary of the method: as §1
# [4] = biological target: Neu5Ac(a2-3)Gal(b1-3)[Fuc(a1-4)]GlcNAc(b1-3)Gal(b1-4)[Fuc(a1-3)]GlcNAc
# Summary of the method: as §1
# [5] = biological target: Neu5Ac(a2-3)Gal(b1-3)[GlcNAc(b1-6)]GalNAc
# Summary of the method: as §1
# [6] = biological target: Neu5Ac(a2-3)Gal(b1-3)[Neu5Ac(a2-6)]GalNAc
# Summary of the method: as §1
# [7] = biological target: Neu5Ac(a2-3)Gal(b1-3)[Neu5Ac(a2-6)]GlcNAc(b1-3)[Fuc(a1-3)[Gal(b1-4)]GlcNAc(b1-6)]Gal(b1-4)Glc
# Summary of the method: as §1
# [8] = biological target: Neu5Ac(a2-3)Gal(b1-3)]Neu5Ac(a2-3)Gal(b1-4)]GlcNAc
# Summary of the method: as §1
# Neu5Ac(a2-3)Gal(b1-4)Glc = biological target: Neu5Ac(a2-3)Gal(b1-4)Glc
# Summary of the method: as §1
# [9] = biological target: Neu5Ac(a2-3)Gal(b1-4)GlcNAc
# Summary of the method: as §1
# [10] = biological target: Neu5Ac(a2-3)Gal(b1-4)GlcNAc(b1-2)Man
# Summary of the method: as §1
# [11] = biological target: Neu5Ac(a2-3)Gal(b1-4)GlcNAc(b1-2)Man(a1-3)[GlcNAc(b1-4)][Neu5Ac(a2-3)Gal(b1-4)GlcNAc(b1-2)Man(a1-6)]Man(b1-4)GlcNAc(b1-4)GlcNAc
# Summary of the method: as §1
# [12] = biological target: Neu5Ac(a2-3)Gal(b1-4)GlcNAc(b1-2)Man(a1-3)[Neu5Ac(a2-3)Gal(b1-4)GlcNAc(b1-2)Man(a1-6)]Man(b1-4)GlcNAc(b1-4)GlcNAc
# Summary of the method: as §1
# [13] = biological target: Neu5Ac(a2-3)Gal(b1-4)GlcNAc(b1-2)Man(a1-3)[Neu5Ac(a2-3)Gal(b1-4)GlcNAc(b1-2)Man(a1-6)]Man(b1-4)GlcNAc(b1-4)[Fuc(a1-6)]GlcNAc
# Summary of the method: as §1
# [14] = biological target: Neu5Ac(a2-3)Gal(b1-4)GlcNAc(b1-2)Man(a1-3)[Neu5Ac(a2-6)Gal(b1-4)GlcNAc(b1-2)Man(a1-6)]Man(b1-4)GlcNAc(b1-4)GlcNAc
# Summary of the method: as §1
# [15] = biological target: Neu5Ac(a2-3)Gal(b1-4)GlcNAc(b1-2)[Neu5Ac(a2-3)Gal(b1-4)GlcNAc(b1-4)]Man(a1-3)[GlcNAc(b1-4)][Neu5Ac(a2-3)Gal(b1-4)GlcNAc(b1-2)[Neu5Ac(a2-3)Gal(b1-4)GlcNAc(b1-6)]Man(a1-6)]Man(b1-4)GlcNAc(b1-4)GlcNAc
# Summary of the method: as §1
# [16] = biological target: Neu5Ac(a2-3)Gal(b1-4)GlcNAc(b1-2)[Neu5Ac(a2-3)Gal(b1-4)GlcNAc(b1-4)]Man(a1-3)[GlcNAc(b1-4)][Neu5Ac(a2-3)Gal(b1-4)GlcNAc(b1-4)Man(a1-6)]Man(b1-4)GlcNAc(b1-4)GlcNAc
# Summary of the method: as §1
# [17] = biological target: Neu5Ac(a2-3)Gal(b1-4)GlcNAc(b1-2)[Neu5Ac(a2-3)Gal(b1-4)GlcNAc(b1-6)]Man(a1-6)[Neu5Ac(a2-3)Gal(b1-4)GlcNAc(b1-2)Man(a1-3)][GlcNAc(b1-4)]Man(b1-4)GlcNAc(b1-4)GlcNAc
# Summary of the method: as §1
# [18] = biological target: Neu5Ac(a2-3)Gal(b1-4)GlcNAc(b1-3)Gal
# Summary of the method: as §1
# [19] = biological target: Neu5Ac(a2-3)Gal(b1-4)GlcNAc(b1-3)Gal(b1-3)GlcNAc
# Summary of the method: as §1
# [20] = biological target: Neu5Ac(a2-3)Gal(b1-4)GlcNAc(b1-3)Gal(b1-4)GlcNAc
# Summary of the method: as §1
# [21] = biological target: Neu5Ac(a2-3)Gal(b1-4)GlcNAc(b1-3)Gal(b1-4)GlcNAc(b1-2)Man(a1-3)[Neu5Ac(a2-3)Gal(b1-4)GlcNAc(b1-3)Gal(b1-4)GlcNAc(b1-2)Man(a1-6)]Man(b1-4)GlcNAc(b1-4)GlcNAc
# Summary of the method: as §1
# [22] = biological target: Neu5Ac(a2-3)Gal(b1-4)GlcNAc(b1-3)Gal(b1-4)GlcNAc(b1-3)Gal(b1-4)GlcNAc
# Summary of the method: as §1
# [23] = biological target: Neu5Ac(a2-3)Gal(b1-4)GlcNAc(b1-3)Gal(b1-4)GlcNAc(b1-3)Gal(b1-4)GlcNAc(b1-2)Man(a1-3)[Neu5Ac(a2-3)Gal(b1-4)GlcNAc(b1-3)Gal(b1-4)GlcNAc(b1-3)Gal(b1-4)GlcNAc(b1-2)Man(a1-6)]GalNAc
# Summary of the method: as §1
# [24] = biological target: Neu5Ac(a2-3)Gal(b1-4)GlcNAc(b1-3)Gal(b1-4)GlcNAc(b1-3)GalNAc
# Summary of the method: as §1
# [25] = biological target: Neu5Ac(a2-3)Gal(b1-4)GlcNAc(b1-3)Gal(b1-4)GlcNAc(b1-3)[Neu5Ac(a2-3)Gal(b1-4)GlcNAc(b1-3)Gal(b1-4)GlcNAc(b1-6)]GalNAc
# Summary of the method: as §1
# [26] = biological target: Neu5Ac(a2-3)Gal(b1-4)GlcNAc(b1-3)Gal(b1-4)GlcNAc(b1-6)[Gal(b1-3)]GalNAc
# Summary of the method: as §1
# [27] = biological target: Neu5Ac(a2-3)Gal(b1-4)GlcNAc(b1-3)Gal(b1-4)[Fuc(a1-3)]GlcNAc
# Summary of the method: as §1
# [28] = biological target: Neu5Ac(a2-3)Gal(b1-4)GlcNAc(b1-3)GalNAc
# Summary of the method: as §1
# [29] = biological target: Neu5Ac(a2-3)Gal(b1-4)GlcNAc(b1-3)[Neu5Ac(a2-3)Gal(b1-4)GlcNAc(b1-6)]GalNAc
# Summary of the method: as §1
binder,measurement,setting,value
B1,glycan array binding signal (z-score),[1],-0.165
same,glycan array binding signal (z-score),[2],0.218
same,glycan array binding signal (z-score),[3],-0.423
same,glycan array binding signal (z-score),[4],-0.286
same,glycan array binding signal (z-score),[5],3.89
same,glycan array binding signal (z-score),[6],-0.221
same,glycan array binding signal (z-score),[7],-0.453
same,glycan array binding signal (z-score),[8],-0.455
same,glycan array binding signal (z-score),Neu5Ac(a2-3)Gal(b1-4)Glc,-0.413
same,glycan array binding signal (z-score),[9],-0.091
same,glycan array binding signal (z-score),[10],-0.174
same,glycan array binding signal (z-score),[11],-0.142
same,glycan array binding signal (z-score),[12],-0.563
same,glycan array binding signal (z-score),[13],1.34
same,glycan array binding signal (z-score),[14],0.37
same,glycan array binding signal (z-score),[15],-0.591
same,glycan array binding signal (z-score),[16],-0.489
same,glycan array binding signal (z-score),[17],9.42
same,glycan array binding signal (z-score),[18],0.071
same,glycan array binding signal (z-score),[19],-0.584
same,glycan array binding signal (z-score),[20],-0.408
same,glycan array binding signal (z-score),[21],-0.256
same,glycan array binding signal (z-score),[22],0.214
same,glycan array binding signal (z-score),[23],0.096
same,glycan array binding signal (z-score),[24],0.201
same,glycan array binding signal (z-score),[25],-0.419
same,glycan array binding signal (z-score),[26],-0.519
same,glycan array binding signal (z-score),[27],-0.414
same,glycan array binding signal (z-score),[28],-0.255
same,glycan array binding signal (z-score),[29],0.136
